Values joined by “and” are separate entries in the source; they are usually repeats but may differ in a detail not shown here. Equal values may be shown once. Where a name gives a salt, the structure may show the parent alone. ± gives the standard deviation of the averaged measurements. Over roughly 3,100 compounds, “mean cytoplasmic OPP incorporation (global translation) relative to DMSO” has its median near 100; the lowest 2% begin near 56. Some of the results follow.

This assay concerns U2OS. The assay can be described thus: mean cytoplasmic OPP incorporation (global translation) relative to DMSO (% of DMSO); higher = more protein synthesis. The note with it: 10 µM; 24 h. How it is done: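 Primary image-based screen in U2OS cells: compounds at 10 uM for 24 h, then a 1 h o-propargyl-puromycin (OPP) pulse, click labelling, and high-throughput microscopy. Mean cytoplasmic OPP intensity and nuclei count were normalised to DMSO wells within each plate (DMSO = 100) and averaged over triplicate plates.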
Regarding `CCc1cccc(CC)c1NC(=O)N1Cc2[nH]nc(NC(=O)c3ccc(N4CCN(C)CC4)cc3)c2C1`, the “mean cytoplasmic OPP incorporation” value amounted to 99.2.
For `Nc1c(O)cc(O)cc1C=Cc1ccc(O)cc1` [Aminoresveratrol sulfate] the value was 100; for `Nc1nc(=O)n([C@@H]2CS[C@H](CO)O2)cc1F` [(-)-Emtricitabine], 105.
The same measure for `COc1ccc(Cl)cc1C(=O)NCCc1ccc(S(=O)(=O)NC(=O)NC2CCCCC2)cc1` [Glyburide]: 105.
`COc1ccc(Cl)cc1C(=O)NCCc1ccc(S(=O)(=O)NC(=O)NC2CCCCC2)cc1` [Glibenclamide]: the “mean cytoplasmic OPP incorporation” value came to 98.68 ± 0.63.
Regarding `CCCOc1ccccc1-c1nc2[nH]nnc2c(=O)[nH]1` [Zaprinast], the “mean cytoplasmic OPP incorporation” value is 102 ± 3.2.
For `CCCCCCNC(=O)n1cc(F)c(=O)[nH]c1=O` [Carmofur] the value was 83.9; for `CCC[C@@H]1C[C@@H](C(=O)N[C@@H]([C@H]2O[C@H](SC)[C@H](OP(=O)(O)O)[C@@H](O)[C@H]2O)[C@H](C)Cl)N(C)C1` [Clindamycin phosphate], 101.
On to `COC(=O)C1=CO[C@@H](O)[C@@H]2C(CO)=CC[C@H]12` [Genipin], for which the “mean cytoplasmic OPP incorporation” value was found to be 99.
For `Cc1nc(C(=O)NCC(=O)O)c(O)c2ccc(Oc3ccccc3)cc12` the value was 99.7; for `COc1cccc2c1C(=O)c1c(O)c3c(c(O)c1C2=O)C[C@@](O)(C(=O)CO)C[C@@H]3O[C@H]1C[C@H](N)[C@H](O[C@@H]2CCCCO2)[C@H](C)O1` [Pirarubicin], 59.9; for `COc1cc2c(NC3CCN(C(C)C)CC3)nc(N3CCC(F)(F)CC3)nc2cc1OCCCN1CCCC1`, 63.
The same measure for `COC(=O)N/N=C/c1c[n+]([O-])c2ccccc2[n+]1[O-]` [Carbadox]: 98.6; for `CN(C(=O)CN(CCO)CC(=O)N(C)C(C)(C)Cc1ccccc1)C(C)(C)Cc1ccccc1` [Oxethazaine]: 120; for `Cc1cc(C)nc(NS(=O)(=O)c2ccc(N)cc2)n1` [Sulfamethazine sodium salt]: 98.7.
The same measure for `Cc1cc(C)nc(NS(=O)(=O)c2ccc(N)cc2)n1` [Sulfamethazine]: 102; for `COc1cc(NS(=O)(=O)c2ccc(N)cc2)ncn1` [Sulfamonomethoxine]: 96.3; for `CCN(c1ccccc1)c1cc(=NC)n(C)c(C)n1`: 82.7.
For the compound `CC1(C)O[C@@H]2C[C@H]3[C@@H]4C[C@H](F)C5=CC(=O)C=C[C@]5(C)[C@@]4(F)[C@@H](O)C[C@]3(C)[C@]2(C(=O)CO)O1` [Fluocinolone acetonide], the “mean cytoplasmic OPP incorporation” value was 105.
For `CC1(C)O[C@@H]2C[C@H]3[C@@H]4C[C@H](F)C5=CC(=O)C=C[C@]5(C)[C@@]4(F)[C@@H](O)C[C@]3(C)[C@]2(C(=O)CO)O1` [Fluocinolone acetonide (Flucort-N)] the value was 104.
For `CC(C)[C@H](N)C(=O)OCCOCn1cnc2c(=O)nc(N)[nH]c21` [Valacyclovir hydrochloride] the value was 94.9; for `CN1CCN2c3ncccc3Cc3ccccc3C2C1` (stereo not given) [Mirtazepine], 94.1; for `CN1CCN2c3ncccc3Cc3ccccc3C2C1` (stereo not given) [Mirtazapine], 104.
For the compound `CC(C)N(CC[C@H](c1ccccc1)c1cc(CO)ccc1O)C(C)C`, the “mean cytoplasmic OPP incorporation” value amounted to 102.
For `C[C@@H]1C/C=C/C=C/C=C/C=C/[C@H](O[C@@H]2O[C@H](C)[C@@H](O)[C@H](N)[C@@H]2O)C[C@@H]2O[C@](O)(C[C@@H](O)C[C@H]3O[C@@H]3/C=C/C(=O)O1)C[C@H](O)[C@H]2C(=O)O` [Natamycin (Pimaricin)] the value was 102; for `CC(C(O)c1ccc(O)cc1)N1CCC(Cc2ccccc2)CC1` (stereo not given) [Ifenprodil hemitartrate], 97.8; for `CC(C(O)c1ccc(O)cc1)N1CCC(Cc2ccccc2)CC1` (stereo not given) [Ifenprodil tartrate], 98.2.
For `CCCn1c(=O)c(C)cn2nc(N)nc12` the value was 104; for `Cc1ccc(OCC(O)C(C)NC(C)C)c2c1CCC2` (stereo not given) [ICI-118,551 hydrochloride], 109; for `c1ccc2cc(C3=NCCN3)ncc2c1` [BU 226 hydrochloride], 95.6.
For `Nc1nc2c(cnn2CCc2ccccc2)c2nc(-c3ccco3)nn12` the value was 102.
In the case of `O=C(/C=C/c1cccc(S(=O)(=O)Nc2ccccc2)c1)NO` [Belinostat (PXD101)], the “mean cytoplasmic OPP incorporation” value turned out to be 65.5.
The same measure for `C=CCOc1ccccc1OCC(O)CNC(C)C` (stereo not given) [Oxprenolol hydrochloride]: 110.
The same measure for `NC[C@H]1O[C@H](O[C@H]2[C@H](O)[C@@H](O[C@H]3O[C@H](CO)[C@@H](O)[C@H](N)[C@H]3O)[C@H](N)C[C@@H]2N)[C@H](N)C[C@@H]1O` [Tobramycin]: 99.2 ± 6.3; for `Cc1c(N)c(=O)n(-c2ccccc2)n1C` [Ampyrone]: 79.7.
For `CCOC(=O)/C=C(C)/C=C/C=C(C)/C=C/c1c(C)cc(OC)c(C)c1C` [Etretinate], the “mean cytoplasmic OPP incorporation” value is 95.4.
The same measure for `CC(C)(C)c1cc(NC(=O)Nc2ccc(-c3cn4c(n3)sc3cc(OCCN5CCOCC5)ccc34)cc2)no1` [Quizartinib (AC220)]: 124; for `CN1CCN(c2ccc(-c3cccc(CN4CCOCC4)c3)cc2NC(=O)c2c[nH]c(=O)cc2C(F)(F)F)CC1`: 111.
The same measure for `N#C/C(=C(/N)Sc1ccc(N)cc1)c1ccccc1C(F)(F)F`: 121 and 97.2; for `COc1cc2nc(N3CCN(C(=O)C4COc5ccccc5O4)CC3)nc(N)c2cc1OC` (stereo not given) [Doxazosin mesylate]: 114; for `O=c1c(O)c(-c2ccc(O)cc2)oc2cc(O)cc(O)c12` [Kaempferol]: 97.1.
For `CCN(CC)C(=O)Nc1ccc(OCC(O)CNC(C)(C)C)c(C(C)=O)c1` (stereo not given) [Celiprolol HCl] the value was 99.6.
`CCCCC1C(=O)N(c2ccccc2)N(c2ccc(O)cc2)C1=O` (stereo not given) [Oxyphenbutazone]: the “mean cytoplasmic OPP incorporation” value was 69.3.
Turning to `N[C@H]1CONC1=O` [(S)-(-)-Cycloserine], the “mean cytoplasmic OPP incorporation” value is 90.2.
With `CNC(=O)c1ccc(N2C(=S)N(c3ccc(C#N)c(C(F)(F)F)c3)C(=O)C2(C)C)cc1F` [MDV3100 (Enzalutamide)], the “mean cytoplasmic OPP incorporation” value came out at 107.
For `COc1cc(OC)c(NC(=O)Nc2cc(C)on2)cc1Cl` the value was 103.
For `CC#CCn1c(N2CCC[C@@H](N)C2)nc2c1c(=O)n(Cc1nc(C)c3ccccc3n1)c(=O)n2C` [Linagliptin (BI-1356)] the value was 112; for `CCN(CC)CCOCCOC(=O)C1(c2ccccc2)CCCC1` [Carbetapentane citrate], 102.2 ± 0.32.
The same measure for `COc1cc(NC(=O)c2ccccn2)ccc1Cl`: 86.5; for `CCN(CCCCOC(=O)c1ccc(OC)c(OC)c1)C(C)Cc1ccc(OC)cc1` (stereo not given) [Mebeverine hydrochloride]: 109; for `CCN(CC)C(=O)C1(c2ccccc2)CC1CN` (stereo not given) [Milnacipran HCl]: 92.2.
As for `Cc1cc(C(C)(C)C)cc(C)c1CC1=NCCN1` [Xylometazoline hydrochloride], the “mean cytoplasmic OPP incorporation” value was 94.9.
With `CC(C)(CO)[C@@H](O)C(=O)NCCC(=O)O` [Pantothenic acid (pantothenate)], the “mean cytoplasmic OPP incorporation” value was found to be 98.9.
As for `O=c1nc2ccccc2c2n1CC(CN1CCN(c3ccccc3)CC1)N2` (stereo not given), the “mean cytoplasmic OPP incorporation” value is 101.
`O=P(O)(O)C(O)(Cn1ccnc1)P(=O)(O)O` [Zoledronic Acid (Zoledronate)]: the “mean cytoplasmic OPP incorporation” value worked out at 99.
For `CO[C@H]1/C=C/O[C@@]2(C)Oc3c(C)c(O)c4c(O)c(c5c(nc6cc(C)ccn65)c4c3C2=O)NC(=O)/C(C)=C\C=C\[C@H](C)[C@H](O)[C@@H](C)[C@@H](O)[C@@H](C)[C@H](OC(C)=O)[C@@H]1C` [Rifaximin (Xifaxan)] the value was 123; for `CO[C@H]1/C=C/O[C@@]2(C)Oc3c(C)c(O)c4c(O)c(c5c(nc6cc(C)ccn65)c4c3C2=O)NC(=O)/C(C)=C\C=C\[C@H](C)[C@H](O)[C@@H](C)[C@@H](O)[C@@H](C)[C@H](OC(C)=O)[C@@H]1C` [Rifaximin], 101.
As for `C[C@]12C=CC(=O)N[C@@H]1CC[C@@H]1[C@@H]2CC[C@]2(C)[C@@H](C(=O)Nc3cc(C(F)(F)F)ccc3C(F)(F)F)CC[C@@H]12` [Dutasteride], the “mean cytoplasmic OPP incorporation” value was 109.
The same measure for `Clc1cccc(Cl)c1NC1=NCCN1` [Clonidine hydrochloride]: 96.56 ± 0.3; for `CCN(CC)c1ccc(/C=N/NC(=O)c2ccc(O)cc2)cc1`: 94.8.
The same measure for `CC(=O)O[C@]1(C(C)=O)CC[C@H]2[C@@H]3C=C(Cl)C4=CC(=O)CC[C@]4(C)[C@H]3CC[C@@]21C` [Chlormadinone acetate]: 111; for `CN1CCN(CCc2ccc(Cl)c(Cl)c2)CC1` [BD 1063 dihydrochloride]: 96.7; for `CCN(CC)C(C)CN1c2ccccc2Sc2ccccc21` (stereo not given) [Ethopropazine hydrochloride]: 108.
For `CCCNC(=O)NS(=O)(=O)c1ccc(Cl)cc1` [Chlorpropamide] the value was 101.
Consider `COc1ccc(-c2nc(N3CCOCC3)c3sc(CN(C)c4ncc(C(=O)NO)cn4)cc3n2)cn1`, for which the “mean cytoplasmic OPP incorporation” value is 86.6.
For `Cc1cnc(Nc2ccc(OCCN3CCCC3)cc2)nc1Nc1cccc(S(=O)(=O)NC(C)(C)C)c1` the value was 82.6 and 66.4; for `CC=CC(=O)N(CC)c1ccccc1C` [Crotamiton], 99.
For `CC1=C(C)C(=O)C(C(CCCCCC(=O)O)c2ccccc2)=C(C)C1=O` (stereo not given) [Seratrodast] the value was 97.1.
`CNCCc1ccccn1` [Betahistine mesylate]: the “mean cytoplasmic OPP incorporation” value stood at 97.5.
Turning to `Cc1nc2c([nH]1)-c1ccccc1N(C(=O)c1ccc(NC(=O)c3ccccc3-c3ccccc3)cc1)CC2` [Conivaptan HCl (Vaprisol)], the “mean cytoplasmic OPP incorporation” value worked out at 110.
For `c1ccc2c(CCNc3ccc(Nc4ccncc4)cc3)c[nH]c2c1` the value was 103; for `CC(C)CCNC(=O)[C@H](CC(C)C)NC(=O)[C@H]1O[C@@H]1C(=O)O`, 101.
For the compound `NCCCCCC(=O)O` [Aminocaproic acid], the “mean cytoplasmic OPP incorporation” value stood at 94.5.
`CN(C)C(=N)NC(=N)N` [Metformin hydrochloride]: the “mean cytoplasmic OPP incorporation” value was 101.
For `COc1c(C)cnc(Cn2cnc3c(Cl)nc(N)nc32)c1C` the value was 77.2.

The values are drawn from the supplement of paper PMC8183993.
